Reference: publication PMC6919601, “Identification of Plasmodium dipeptidyl aminopeptidase allosteric inhibitors by high throughput screening” (PLoS ONE, 2019)
About 230 (0.21%) of roughly 110,000 compounds showed an effect of 50% or more. This is one part of the list.

These compounds were tested against DPAP1 (Plasmodium falciparum, UniProt Q8IIJ9) (assay: primary screen, percent inhibition; read by cleavage of a fluorogenic dipeptide substrate; higher = more effect of the substance).
Set-up: species or system P. falciparum D10 trophozoite lysates; single well
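Further: 30 min substrate incubation versus DMSO and 10 µM JCP410 controls.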

Sequence of DPAP1 (Q8IIJ9 whole entry, looked up): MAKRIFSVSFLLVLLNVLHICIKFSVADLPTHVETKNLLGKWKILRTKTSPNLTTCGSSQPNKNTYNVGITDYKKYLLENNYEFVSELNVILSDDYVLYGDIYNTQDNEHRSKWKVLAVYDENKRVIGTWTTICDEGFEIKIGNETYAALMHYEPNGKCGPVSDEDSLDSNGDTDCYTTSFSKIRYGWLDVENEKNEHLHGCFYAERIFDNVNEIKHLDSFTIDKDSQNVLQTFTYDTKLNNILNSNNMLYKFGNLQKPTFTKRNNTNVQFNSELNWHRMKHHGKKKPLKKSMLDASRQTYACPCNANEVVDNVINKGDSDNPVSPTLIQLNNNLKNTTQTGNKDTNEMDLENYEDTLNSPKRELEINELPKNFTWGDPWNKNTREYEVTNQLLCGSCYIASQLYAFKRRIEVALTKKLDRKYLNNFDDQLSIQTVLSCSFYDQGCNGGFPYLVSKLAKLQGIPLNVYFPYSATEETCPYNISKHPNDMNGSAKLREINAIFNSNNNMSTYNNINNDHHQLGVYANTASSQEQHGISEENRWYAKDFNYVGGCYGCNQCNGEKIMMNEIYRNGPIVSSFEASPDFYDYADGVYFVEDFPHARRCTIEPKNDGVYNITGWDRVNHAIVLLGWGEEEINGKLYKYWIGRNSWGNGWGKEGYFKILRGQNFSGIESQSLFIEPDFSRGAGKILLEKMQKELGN

| Structure (SMILES) | % Inhibition @ 10 uM |
| --- | --- |
| Cc1ccccc1C(=O)O/N=C(\N)c1ccncc1 | 3.87% |
| Cc1cn2c3ccccc3n(N)c2n1 | -2.92% |
| CC1CCC(NC(=O)Cn2ccc3cc(S(=O)(=O)N4CCCC4)ccc32)CC1 (centres unmarked) | 6.57% |
| CC1(C)CC(=O)C(CC(=O)c2ccc(Cl)cc2)=C(O)C1 | 5.13% |
| COc1ccc(C(=O)Nc2nc(-c3nnn(-c4ccc(C)c(C)c4)c3C)ns2)cc1 | -1.38% |
| CC(C)(C)c1ccc(C(=O)Nc2cc(C(N)=O)cc(C(N)=O)c2)cc1 | -1.54% |
| CCC(C)NC(=O)C1=C(C)C(=O)OC12CCCCCC2 (centres unmarked) | -5.21% |
| CSc1ccc(CN2CCN(C(=O)CC(C)C)CC2)cc1 | 4.55% |
| COCc1cc(C)nc2sc3c(c12)NC(c1ccc(O)cc1)N(Cc1ccco1)C3=O (centres unmarked) | 4.13% |
| Oc1ccc(-c2ccc(F)c(F)c2)nn1 | -2.84% |
| COc1cc(NC(=O)c2ccc(C(C)(C)C)cc2)ccc1NC(=O)c1ccco1 | -0.511% |
| CCOC(=O)c1cc(S(=O)(=O)N2CC=C(c3ccccc3)CC2)cn1C | 3.92% |
| Cc1nc2c(C(=O)N3CCC4(CC3)OCCO4)cnn2c(O)c1Cc1ccccc1Cl | -5.92% |
| CCC(Sc1nnc(C)n2c1cc1oc(C)cc12)C(=O)N1CCOCC1 (centres unmarked) | -2.26% |
| O=c1c2ccccc2nc2ccc(SCc3ccccc3)nn12 | 1.57% |
| CCOc1ccc(CNCCCSc2nnnn2-c2ccccc2)cc1 | -4.71% |
| CCCN(CCC)C/C(=N/O)C(=O)Nc1ccccc1 | -3.98% |
| COc1ccc(Br)cc1CN1CCC(Cc2ccccc2)CC1 | -4.5% |
| COc1ccc(-c2noc(CSc3nnc(CCc4ccccc4)n3C)n2)cc1 | -0.45% |
| CCCCn1c(=O)c(C(=O)Nc2ccc(C)cc2)c(O)c2ccccc21 | 2.93% |
| CC1CCC(NC(=O)CCn2ccc3cc(S(=O)(=O)N4CCCC4)ccc32)CC1 (centres unmarked) | 5.14% |
| CCOC(=O)c1c(S(=O)(=O)N2CCN(C)CC2)c(C)n(C)c1C | 1.32% |

| Structure (SMILES) | % Inhibition @ 10 uM |
| --- | --- |
| O=C(CN1Cc2ccccc2C1=O)N1CC=C(c2ccccc2)CC1 | -3.85% |
| FC(F)(F)c1cccc(-n2cccc2)c1 | 1.03% |
| O=C(O)C1C2C=CC(C2)C1C(=O)Nc1ccc(Oc2ccccc2)cc1 (centres unmarked) | 6.61% |
| CCc1c(C#N)c(N)nc(SCC(=O)c2ccc(C)cc2)c1C#N | 4.12% |
| Cc1ccc(F)cc1N1C(=O)c2nc(C)c(C)nc2C1=O | 6.79% |
| Cc1cc(C)c(S(=O)(=O)Nc2cc(Cl)cc(Cl)c2)c(C)c1 | -4.4% |
| CC(=O)c1c(C(C)=O)c(C)n(-c2ccc(C)cc2)c1C | 1.57% |
| N#CC1=C(N)OC2=C(C(=O)CC(c3ccccc3)C2)C12C(=O)Nc1ccc(Br)cc12 (centres unmarked) | 5.29% |
| Cc1ccc(Cn2c(SCC(C)C)nc3c2c(=O)[nH]c(=O)n3C)cc1 | -0.25% |
| O=C(OCc1ccccc1)N1CN(CCO)Cc2c1oc1ccccc1c2=O | -7.45% |
| COCc1nc2ccccc2n1CCOc1ccc(C(C)(C)C)cc1 | -4.65% |
| Cc1ccc(-c2csc(NS(=O)(=O)c3ccc(C)cc3)n2)cc1 | -0.132% |
| COc1cccc(CN2CCN(Cc3ccc(Br)cc3)CC2)c1OC | -3.37% |
| CCN(c1ccccc1)S(=O)(=O)c1ccc(NC(=O)Nc2ccc(Cl)cc2)cc1 | -9.59% |
| COc1cc(OC)c(CN2CC3(C)CC2CC(C)(C)C3)cc1Br (centres unmarked) | 4.9% |
| Cc1ccsc1C(C#N)NC(=O)[C@@H](NC(=O)OCc1ccccc1)C1CCCC1 (some centres unmarked) | -4.72% |
| CC(C)c1ccc(CN2CCN(c3ccc(F)cc3)CC2)cc1 | -1.77% |
| COc1ccc(/C=C/C(=O)NC(=S)Nc2sc3c(c2C#N)CCCC3)cc1OC | 15.2% |
| N#Cc1cc2c(nc1SCC(=O)NC1CC1)C1CCN2CC1 | -6.65% |
| O=C(Nc1ccc(Cc2ccc(NC(=O)N3CCCCC3)cc2)cc1)N1CCCCC1 | 2.38% |
| O=C(NCc1ccccc1)C1CCN(S(=O)(=O)N2CCCCCC2)CC1 | -4.06% |
| CCOc1ccccc1N1CCN(Cc2cc(Br)c(OC)cc2OC)CC1 | -3.56% |

| Structure (SMILES) | % Inhibition @ 10 uM |
| --- | --- |
| COc1ccc(S(=O)(=O)c2cc3ccccc3oc2=O)cc1 | -4.97% |
| Cc1ccc(Oc2ccc(C(F)(F)F)cc2NC(=O)c2cccnc2)cc1 | 2.82% |
| CC(C)=CCCCCCCN1CCN(c2ccccc2F)CC1 | -2.95% |
| N#Cc1ccccc1CSc1nc2ccccc2[nH]1 | -1.8% |
| CCCCOC(=O)CNC1CC(C)(C)NC(C)(C)C1 | -7.35% |
| CCOC(=O)N1CCN(Cc2ccc(F)cc2)CC1 | 5.8% |
| CN(C)CC(C)(C)CNC1Cc2ccccc2C1 | -7.35% |
| Oc1ccccc1C1=NN2C(C1)c1ccccc1OC2c1cccnc1 (centres unmarked) | -1.68% |
| O=C(O)c1cccn1-c1nnc(N2CCCCCC2)s1 | 0.0198% |
| CCCN1CCN(C(=O)Cn2ncc3c(C)n(Cc4ccc(C)cc4)c(C)c3c2=O)CC1 | -7.72% |
| COc1cccc(C2C3=C(O)CCCC3=Nc3nc(SC)nn32)c1OC (centres unmarked) | -1.62% |
| Cc1ccc(S(=O)(=O)/N=C(/NC2CCCCC2)c2ccc(F)cc2)cc1 | -1.4% |
| Cc1cc(C)c(Cn2c(C)nc3ccccc32)c(C)c1 | -0.0235% |
| CCc1nnc(NC(=O)CSc2nnnn2-c2ccccc2)s1 | -1.26% |
| C=CCN1C(=O)/C(=C/c2ccccc2OC)C(=O)NC1=S | 0.467% |
| O=C(CCNS(=O)(=O)c1ccc(Br)s1)NC1CCN(Cc2ccccc2)CC1 | 2.01% |
| CCOc1cc(NC(=O)c2ccccc2)c(OCC)cc1N | 0.431% |
| CCOC(=O)C1=CN(Cc2ccc(OC)cc2)C=C(C(=O)OCC)C1c1ccccc1OC(C)C | 1.86% |
| Cc1ccc(NC(=O)CC(C(=O)O)N2CCN(C)CC2)cc1Cl (centres unmarked) | 3.58% |
| Cc1ccc(OCc2nc(-c3ccc(C(=O)NCc4ccc(C)o4)cc3)oc2C)cc1 | -4.4% |
| C=C(C)Cn1c(N2CCOCC2)nc2c1c(=O)[nH]c(=O)n2C | -1.32% |
